US20240182596A1, “ANTI-NAPI2B ANTIBODIES AND ANTIBODY-DRUG-CONJUGATES BASED THEREON, THERAPEUTIC METHODS AND USES THEREOF” (Tubulis GmbH, priority 2022, published 2024)

T1: HEK293 cells expressing human Napi2a (SLC34A1) (Homo sapiens, UniProt Q06495)
T1 construct: expressed in transfected cells; host or cells: HEK293
T1 sequence (Q06495 1-639): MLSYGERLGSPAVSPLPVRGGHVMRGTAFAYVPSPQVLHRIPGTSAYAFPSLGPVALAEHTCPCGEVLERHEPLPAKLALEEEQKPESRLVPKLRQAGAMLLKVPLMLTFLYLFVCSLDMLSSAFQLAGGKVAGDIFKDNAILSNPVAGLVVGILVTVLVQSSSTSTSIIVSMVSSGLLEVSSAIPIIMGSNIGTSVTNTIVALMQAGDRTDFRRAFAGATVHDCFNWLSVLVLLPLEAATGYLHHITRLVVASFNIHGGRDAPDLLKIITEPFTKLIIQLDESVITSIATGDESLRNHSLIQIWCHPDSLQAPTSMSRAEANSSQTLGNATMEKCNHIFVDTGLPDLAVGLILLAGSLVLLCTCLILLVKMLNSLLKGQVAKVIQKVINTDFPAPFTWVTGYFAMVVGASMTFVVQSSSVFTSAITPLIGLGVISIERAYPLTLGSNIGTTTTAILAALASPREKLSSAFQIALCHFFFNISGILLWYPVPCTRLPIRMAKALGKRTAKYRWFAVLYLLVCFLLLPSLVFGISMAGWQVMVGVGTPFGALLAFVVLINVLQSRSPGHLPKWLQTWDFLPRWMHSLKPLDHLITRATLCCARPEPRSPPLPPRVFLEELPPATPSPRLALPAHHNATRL

T2: HEK293 cells expressing human Napi2c (SLC34A3) (Homo sapiens, UniProt Q8N130)
T2 construct: expressed in transfected cells; host or cells: HEK293
T2 sequence (Q8N130 1-599): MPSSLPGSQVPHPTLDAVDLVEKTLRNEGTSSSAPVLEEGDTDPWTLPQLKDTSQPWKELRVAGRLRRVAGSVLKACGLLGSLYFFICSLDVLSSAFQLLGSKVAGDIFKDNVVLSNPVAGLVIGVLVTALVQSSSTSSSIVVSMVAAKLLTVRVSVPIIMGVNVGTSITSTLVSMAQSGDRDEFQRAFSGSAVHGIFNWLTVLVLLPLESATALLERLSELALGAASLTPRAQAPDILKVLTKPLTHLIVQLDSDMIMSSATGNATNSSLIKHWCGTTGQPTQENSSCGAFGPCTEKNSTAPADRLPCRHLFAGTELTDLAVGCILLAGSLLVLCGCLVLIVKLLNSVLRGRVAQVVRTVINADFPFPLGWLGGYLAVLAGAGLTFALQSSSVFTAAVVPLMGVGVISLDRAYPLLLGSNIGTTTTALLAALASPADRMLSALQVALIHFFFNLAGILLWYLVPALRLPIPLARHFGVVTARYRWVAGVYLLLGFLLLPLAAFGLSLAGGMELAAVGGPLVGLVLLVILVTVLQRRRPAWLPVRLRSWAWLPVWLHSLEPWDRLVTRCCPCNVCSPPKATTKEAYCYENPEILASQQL

T3: NaPi2b (Homo sapiens, UniProt O95436)
T3 construct: Napi2b antigen consisting of Napi2b-extracellular-loop2 expressed as Fc-fusion-6-His-tagged protein in Expi-HEK293 cells; Fc-fusion; 6-His; made in house; host or cells: Expi-HEK293 cells
T3 sequence (O95436 whole entry, looked up): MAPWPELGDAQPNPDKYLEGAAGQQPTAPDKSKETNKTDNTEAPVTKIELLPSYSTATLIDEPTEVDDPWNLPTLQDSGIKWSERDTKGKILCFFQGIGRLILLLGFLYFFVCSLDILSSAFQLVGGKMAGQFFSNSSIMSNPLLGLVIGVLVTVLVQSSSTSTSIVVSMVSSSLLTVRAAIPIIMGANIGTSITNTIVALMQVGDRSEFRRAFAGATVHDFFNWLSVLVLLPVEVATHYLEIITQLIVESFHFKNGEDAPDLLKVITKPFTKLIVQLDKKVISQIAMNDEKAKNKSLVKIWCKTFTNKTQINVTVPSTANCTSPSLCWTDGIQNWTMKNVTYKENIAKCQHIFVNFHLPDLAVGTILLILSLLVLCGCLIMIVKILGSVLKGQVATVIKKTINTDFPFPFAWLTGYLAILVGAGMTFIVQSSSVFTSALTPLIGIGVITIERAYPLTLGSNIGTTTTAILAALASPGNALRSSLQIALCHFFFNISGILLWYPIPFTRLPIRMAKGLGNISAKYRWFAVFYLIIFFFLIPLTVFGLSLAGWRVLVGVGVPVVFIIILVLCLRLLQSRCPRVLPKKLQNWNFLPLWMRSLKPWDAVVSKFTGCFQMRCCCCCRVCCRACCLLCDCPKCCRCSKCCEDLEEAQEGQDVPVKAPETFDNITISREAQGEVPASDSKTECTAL

B1: AV25: humanized anti-NaPi2b IgG1 antibody, light chain SEQ ID NO: 6, heavy chain SEQ ID NO: 7, Fc-silenced (LALA) (antibody)
heavy: EVQLVQSGAEVVKPGASVKMSCKASGYTFTGYIIHWVKQAPGQGLEWIGAIYPGSGATSYKQKFRGRATLTADTSTSTVYMELSSLRSEDSAVYYCARGETARATFAYWGQGTLVTVSS[human IgG1 constant region with changes skipped]
light: DIQMTQSPSSLSASVGDRVTITCSASQDIGNFLNWYQQKPGKTVKVLIYYASSLYSGVPSRFSGSGSGTDYTLTISSLQPEDFATYYCQQYSKLPLTFGQGTKLELKRTVAAPSVFIFPPSDEQLKSGTASVVCLLNNFYPREAKVQWKVDNALQSGNSQESVTEQDSKDSTYSLSSTLTLSKADYEKHKVYACEVTHQGLSSPVTKSFNRGEC
modifications: Heavy chain without a signal seqeunce; Light chain without a signal seqeunce
B2: AV25-P5(PEG24)-VC-PAB-Exatecan DAR 8: AV25 antibody conjugated to P5(PEG24)-VC-PAB-Exatecan, DAR8 (conjugate)
heavy: EVQLVQSGAEVVKPGASVKMSCKASGYTFTGYIIHWVKQAPGQGLEWIGAIYPGSGATSYKQKFRGRATLTADTSTSTVYMELSSLRSEDSAVYYCARGETARATFAYWGQGTLVTVSS[human IgG1 constant region with changes skipped]
light: B1 light

Columns and labels:
[1] = target: T1, HEK293 cells expressing human Napi2a (SLC34A1); assay: Binding to human NaPi2a evaluated by flow cytometry; conditions: 0.002 to 200 nM
Protocol: (§1) To determine concentration-dependent binding, HEK293 cells transiently or stably expressing human Napi2a-, Napi2b- and Napi2c-mCherry were incubated with antibodies or ADCs in concentrations ranging from 0.002 to 200 nM, stained with an Alexa-dye-labeled anti-human IgG H+L secondary antibody (Thermo Fisher Scientific), and analyzed by flow cytometry. Mean fluorescence intensity (MFI) ratios were normalized to the non-specific binding control. The assay was performed in duplicates and data points were analyzed by a non-linear regression using a one-site specific binding model using Prism 9 software.

[2] = target: T2, HEK293 cells expressing human Napi2c (SLC34A3); assay: Binding to human NaPi2c evaluated by flow cytometry; conditions: 0.002 to 200 nM
Protocol: as §1

[3] = target: T3, NaPi2b; assay: Binding KD (nmol/L) | ELISA
Excerpt: Table printed on a drawing sheet, FIG. 20
Head of the field: Binding KD (nmol/L) | ELISA
First copying reader's note: Decimal commas and decimal points are mixed as printed; some columns (ADC retention time, cytotoxicity) refer to the antibody-drug conjugates made from the listed mAbs.
Where the first naming reader finds the target: passage: An antibody drug conjugate (ADC) comprising the anti-NaPi2b antibody according to any one of the preceding items.

[4] = tested on: patient derived tumor models (lung, endometrial and ovarian cancer); assay: In vivo efficacy in patient derived xenograft models (PDX), 10 mg/kg; set-up: species or system NMRI nu/nu mice; conditions: 10 mg/kg once at day 0, i.v.
[5] = In vivo toxicity in cynomolgus monkeys
Protocol: Toxicology studies were performed in cynomolgus monkeys.

[6] = tested on: target-negative cells; assay: In vitro cytotoxicity via resazurin assay on target-negative cells; assay type: cell-based; conditions: 7 days, 0-12 μg/ml
[7] = tested on: patient-derived ovarian cancer xenograft models; assay: PDX studies (10 mg/kg) in patient-derived ovarian cancer xenograft models; assay type: in vivo, NMRI nu/nu mice; conditions: single 10 mg/kg dose; incl. BRCA-mutated and low Napi2b expression models
Excerpt: The PDX experiments have been performed as described in example 2.

Molecule	Binding (MFI ratio) [1]	Binding (MFI ratio) [2]	Kd [3]	Efficacy compared to vehicle control [4]	Changes in body weight, clinical chemistry, hematology and histopathology ([5]; 10 and 20 mg/kg i.v. on days 1 and 22)	HNSTD compared to doses explored in toxicology studies with other NaPi2B-targeting ADCs ([5]; cynomolgus monkey, in vivo)	HNSTD (highest nonseverely toxic dose) ([5]; i.v. on days 1 and 22, necropsy day 43)	Unspecific toxicity [6]	Efficacy compared to vehicle control [7]
B1	but not Napi2a	not Napi2a (SLC34A1) or Napi2c	71 nM						
B2				very high and long-lasting efficacy	No severe changes	at least 6 times	at least 20 mg/kg	No unspecific toxicity	very high and long-lasting efficacy
